In the RNAGym collection of RNA variant scans (doi:10.1093/nar/gkz1192):
Read counts are not given, so values of variants with three or more changes are uncertain.

B1: CPEB3 Ribozyme (parent)
chain: UAACAGGGGGCCACAGCAGAAGCGUUCACGUCGCAGCCCCUGUCAGAUUCUGGUGAAUCUGCGAAUUCUGCUGUAUAUCUC

Variants of: B1
Experiment: self-cleavage, relative activity (ratio to wild type); higher = more cleavage; in vitro, sequencing
Procedure, shortened: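 CPEB3 self-cleaving ribozyme mutant libraries were made by rounds of error-prone PCR, barcoded, and transcribed in vitro with T7 RNA polymerase for 5 hours at 37°C. Cleavage occurred during transcription and a 15 min DNase I step before EDTA stop. RNAs were reverse transcribed with template switching and Illumina-sequenced, with DNA sequencing mapping barcodes to variants. Relative activity is the variant's cleaved/total read fraction divided by wild type's (minimum 5 reads), averaged across three batches.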

Row | Variant | self-cleavage
1 | A21G U31A A35G C44U U51C U78C U80C | 0.06
2 | A21G U25C C32U G63C | 0.07
3 | A21G G24C U43C U51A | 0.11
4 | A21G U26C A64G A65G | 0.23
5 | A21G G33A C71G | 0.08
6 | A21G U31C U51A U54A U66C | 0.64
7 | A21G C40U U51A G61A U80A | 0.49
8 | A21G G22A G46A A75G | 0.06
9 | A21G G52U A57G | 0.53
10 | A21G U25C C39A U43C U54C | 0.21
11 | A21G U25C U51A A57G U69C U78C | 0.11
12 | A21G U26C U54C U67A | 0.32
13 | A21G U25C C29U A56G A64G U69C U80C | 0.03
14 | A21G U26A U60A U80C | 0.2
15 | A21G C50U U54C A65G | 0.1
16 | A21G C34U U54C U58A U66C | 0.06
17 | A21G C39G U60C | 0.18
18 | A21G C29A A47U G52A U74A U76C | 0.14
19 | A21G G61U G63C U72C | 0.21
20 | A21G U26C G33C A45U | 0.06
21 | A21G U25G U26A G42A | 0.06
22 | A21G G30C U41C U69A | 0.19
23 | A21G U31A U78A | 0.41
24 | A21G C27U U41C U66C | 0.25

Row | Variant | self-cleavage
25 | A21G C32U U41C U69C | 0.07
26 | A21G U26C C50G U54A | 0.09
27 | A21G U25A A35G U69A U76A | 0.03
28 | A21G U31C A57G | 0.17
29 | A21G U31C U41A A45G | 0.29
30 | A21G G30A U51C | 0.1
31 | A21G C32U A35G | 0.08
32 | A21G G30A G33C U80C | 0.1
33 | A21G U25C U69C A77C U78C | 0.08
34 | A21G U25C C29A U51C U60A A64G G70U | 0.04
35 | A21G C62G U69A U74A | 0.05
36 | A21G C34U A35U A64C | 0.05
37 | A21G U25C A65U U72C U78C | 0.06
38 | A21G C40U A45G G46C U72C | 0.3
39 | A21G C37A U48C U49C U74C | 0
40 | A21G G42U U74C A75U | 0.61
41 | A21G U26C U48C | 0.29
42 | A21G C39U U49A U80A | 0.08
43 | A21G U25C U26C U49C A64G U72C | 0.24
44 | A21G G36C A75U | 0.05
45 | A21G G22A A35G U43C A56G | 0.19
46 | A21G U25C A35U C40A U67C | 0.15
47 | A21G U25C C29U U41A | 0.11
48 | A21G G30A C37A U51G A57G U69C | 0.21

Row | Variant | self-cleavage
49 | A21G G30A U43A | 0.26
50 | A21G G30A C34G U41C U51A | 0.1
51 | A21G G33U C38A U41C U58A A64G C68G | 0.07
52 | A21G C27U U60A U67C U72A U80C | 0.08
53 | A21G U31C U51C A57G A65G U76A | 0.05
54 | A21G U31A U48C U76C U78C | 0.13
55 | A21G U25A G61A | 0.17
56 | A21G U25C U26C A45G | 0.33
57 | A21G G24A U66C | 0.09
58 | A21G U31C A45U C59A | 0.08
59 | A21G U25C A28U A35G U76C | 0.19
60 | A21G C39U U43C | 0.06
61 | A21G U25C A35G C71A | 0.06
62 | A21G U26C G36A C40U A45G U69C | 0.16
63 | A21G C34U U43C A47G | 0.14
64 | A21G U26A A28G C29U A64G U72C | 0.07
65 | A21G U25A U51G U54A U67C A77G | 0.08
66 | A21G U26C C62U U72C | 0.1
67 | A21G G33U A45U C62U | 0.11
68 | A21G U31C U41A A45G U67C A75U | 0.05
69 | A21G G30U U51C U69A | 0.42
70 | A21G G24A U74A | 0.32
71 | A21G C44U U80C | 0.19
72 | A21G C27U C40U A64G | 0.08

Row | Variant | self-cleavage
73 | A21G C29A C37A A45G A47G U51C | 0.05
74 | A21G U25C U60A A64G | 0.13
75 | A21G C27A U41C U54C | 0.13
76 | A21G U25C A35U U43C U67C | 0.05
77 | A21G U26A U48C G63U | 0.08
78 | A21G C29U C38A C40U U43C U51A | 0.19
79 | A21G U25C C29G | 0.06
80 | A21G G30A A56U U66C | 0.21
81 | A21G U25C U58G C62G U69C | 0.06
82 | A21G U31C G33U U41C U66C U80C | 0.05
83 | A21G U25A A64G C79U | 0.3
84 | A21G U25C U43C A64U U78C | 0.05
85 | A21G G33A A35U U51A A64G U72G | 0.05
86 | A21G G24A A28C A64G A75G | 0.05
87 | A21G U26C U41A U49C U72C | 0.31
88 | A21G G36A C40U | 0.1
89 | A21G U25A U41C A64G U80C | 0.37
90 | A21G U25C A35U U74C | 0.3
91 | A21G C23U A35G U43A U66C A77G U80A | 1.09
92 | A21G G30U U69A | 0.43
93 | A21G C40A U43C U49A A57C U74A | 0.05
94 | A21G U31A A64G A65U | 0.15
95 | A21G U25C U48A U60A U76C A77G | 0.04
96 | A21G U25C U41A U51G | 0.19

Row | Variant | self-cleavage
97 | A21G U25C U43C | 0.04
98 | A21G U25C U58C A64G | 0.36
99 | A21G C32U U54A | 0.11
100 | A21G G36A A56G | 0.17
101 | A21G G42A U78C | 0.18
102 | A21G U31A U54A G63C U78C | 0.26
103 | A21G U25G C39G U66A | 0.25
104 | A21G C38U U60G | 0.11
105 | A21G C39U A47U A57G C62U | 0.06
106 | A21G U31C G33A U72G | 0.05
107 | A21G U25C A65G | 0.12
108 | A21G U25C A65C | 0.36
109 | A21G U26C C37G U41C U54C A65G U76A | 0
110 | A21G G33U A56U U58C U60C A65C | 0.05
111 | A21G C38A U72C U78G | 0.09
112 | A21G G30A A56G | 0.38
113 | A21G G22A U41A U66C | 0.06
114 | A21G U25A A47G U49C | 0.03
115 | A21G U25A U48C A65G U67C | 0.08
116 | A21G G30A C39U G42A U43C | 0.08
117 | A21G C34U A65G | 0.18
118 | A21G G24A U26C U80A | 0.11
119 | A21G U25C U41A U48A G53C U67A U80C | 0.17
120 | A21G U31C A47U A64G | 0.24

Row | Variant | self-cleavage
121 | A21G C34U A64U U78A | 0.04
122 | A21G G42A A47C A64G U76C | 0.07
123 | A21G U25C U43C G52A A64U U78A | 0.08
124 | A21G C37U A64G | 0.16
125 | A21G G33C U43C U60A U67C | 0.09
126 | A21G U25C A45C A64G A65G U74C | 0.05
127 | A21G U25C C32U U49C U66C C71U | 0.02
128 | A21G C23U U43A U69A | 0.2
129 | A21G U25A G33A A45U | 0.05
130 | A21G U26A C44U A47G | 0.15
131 | A21G G22A A28G C32U A64U U76C | 0.1
132 | A21G C27A A47G G52A | 0.33
133 | A21G C40A A45C | 0.12
134 | A21G G36C U41A C44A A45G | 0.11
135 | A21G C34U A47G U60C | 0.14
136 | A21G U26G U51A | 0.16
137 | A21G U25C U51A U60C | 0.06
138 | A21G C23U U60C | 0.17
139 | A21G U26C U31C | 0.22
140 | A21G U26C U48C U72C | 0.23
141 | A21G U31C U58C U80C | 0.09
142 | A21G U31C U48C U78C | 0.11
143 | A21G C27A C32A A65G U67C | 0.07
144 | A21G U31A A45U | 0.33

Row | Variant | self-cleavage
145 | A21G G63C A75U U78C | 0.51
146 | A21G U25C A65G U80G | 0
147 | A21G C32G U49C | 0.15
148 | A21G G61A A65G A77U | 0.12
149 | A21G G24A U26C A45U U69C | 0.09
150 | A21G U25A A45C U66C | 0.15
151 | A21G U25C C50A | 0.22
152 | A21G U26C A45G A57G | 0.25
153 | A21G U26C C38U A56G A75G | 0.04
154 | A21G U26C U41C U51A U54C A75U | 0.33
155 | A21G C29U U31A A56G | 0.08
156 | A21G U26A U43C A56G A64G A77G | 0.03
157 | A21G U26C U60A U76C U78A | 0
158 | A21G U25C U31A | 0.33
159 | A21G U25C U31C | 0.53
160 | A21G G52C A56G | 0.73
161 | A21G U26C C37G C40A U67A | 0.07
162 | A21G G55A A56G | 0.36
163 | A21G C34G U49C U66C U72A | 0.07
164 | A21G G36A U69A | 0.08
165 | A21G G36A U69C | 0.13
166 | A21G U25C A45U | 0.35
167 | A21G G24A U26C U74A | 0.29
